# From PMC7005341 (Computational and Structural Biotechnology Journal, 2020)
# Target: the molecule itself
# Experiment: western blot of oligomer bands after SDS-PAGE
protein,measurement,value
"sigma 1 receptor (σ1R), human, E102Q mutant, unmodified (receptor) not shown",stoichiometry N,2
